Assay results: publication PMC5700166
The list shows a part of the results, in another mix than the full data. The list includes weakly bound sequences.

What was measured:
Test in all cases: protein-binding microarray (PBM)
Conditions in all cases: PBM: ~300 nM protein, 6 mM HEPES pH 7.8, 80 mM KCl, 0.5 mM EDTA, 0.5 mM EGTA, 6% glycerol, 35 ng/ul poly-dIdC, 1% milk, 1 h, room temperature; Ap Aiptasia and Nv Nematostella (sea anemones) / Co Capsaspora / Aq Amphimedon (sponge) / Dm Drosophila / Hu human; RHD is the Rel homology domain; high values mean tight binding; most listed sequences are background and not binding sites; double strand, one strand shown
[1] = target: T1, GST-Nv-NF-kB (Cys allele) (UniProt E5G601)
T1 sequence: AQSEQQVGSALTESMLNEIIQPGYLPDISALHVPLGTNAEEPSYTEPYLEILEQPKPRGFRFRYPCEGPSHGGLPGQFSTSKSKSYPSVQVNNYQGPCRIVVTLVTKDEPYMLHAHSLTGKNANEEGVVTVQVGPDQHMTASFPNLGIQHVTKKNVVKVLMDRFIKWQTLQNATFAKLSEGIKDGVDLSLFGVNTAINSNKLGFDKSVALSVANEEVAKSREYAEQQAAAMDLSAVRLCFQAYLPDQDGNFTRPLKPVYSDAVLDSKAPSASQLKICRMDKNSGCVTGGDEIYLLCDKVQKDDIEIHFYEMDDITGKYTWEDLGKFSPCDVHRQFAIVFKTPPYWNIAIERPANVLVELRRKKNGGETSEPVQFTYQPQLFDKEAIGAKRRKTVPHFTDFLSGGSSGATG

GST-Co-NF-kB = target: T2, GST-Co-NF-kB (UniProt F1ARL5)
T2 sequence: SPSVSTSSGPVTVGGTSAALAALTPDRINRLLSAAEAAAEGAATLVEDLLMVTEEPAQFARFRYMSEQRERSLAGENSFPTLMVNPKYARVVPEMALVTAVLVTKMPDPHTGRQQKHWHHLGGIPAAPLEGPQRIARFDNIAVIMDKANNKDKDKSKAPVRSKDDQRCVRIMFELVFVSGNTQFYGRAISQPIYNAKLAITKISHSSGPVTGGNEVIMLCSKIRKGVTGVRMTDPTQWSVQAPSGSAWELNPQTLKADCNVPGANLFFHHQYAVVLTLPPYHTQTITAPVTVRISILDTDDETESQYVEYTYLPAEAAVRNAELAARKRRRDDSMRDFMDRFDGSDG

GST-Aq-NF-kB = target: T3, GST-Aq-NF-kB (UniProt A9Y5G7)
T3 sequence: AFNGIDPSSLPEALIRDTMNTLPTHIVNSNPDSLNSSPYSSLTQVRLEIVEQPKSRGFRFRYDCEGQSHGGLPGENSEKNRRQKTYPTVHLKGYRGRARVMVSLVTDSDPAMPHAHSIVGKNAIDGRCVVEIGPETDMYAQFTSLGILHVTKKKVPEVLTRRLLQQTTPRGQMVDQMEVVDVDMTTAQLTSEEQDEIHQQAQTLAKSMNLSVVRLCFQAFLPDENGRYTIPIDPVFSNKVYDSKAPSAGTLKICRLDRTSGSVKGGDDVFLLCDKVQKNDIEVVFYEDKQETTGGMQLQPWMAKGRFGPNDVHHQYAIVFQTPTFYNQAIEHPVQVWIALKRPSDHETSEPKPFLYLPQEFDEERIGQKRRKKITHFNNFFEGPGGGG

GST-Dm-Relish = target: T4, GST-Dm-Relish (UniProt Q94527)
T4 sequence: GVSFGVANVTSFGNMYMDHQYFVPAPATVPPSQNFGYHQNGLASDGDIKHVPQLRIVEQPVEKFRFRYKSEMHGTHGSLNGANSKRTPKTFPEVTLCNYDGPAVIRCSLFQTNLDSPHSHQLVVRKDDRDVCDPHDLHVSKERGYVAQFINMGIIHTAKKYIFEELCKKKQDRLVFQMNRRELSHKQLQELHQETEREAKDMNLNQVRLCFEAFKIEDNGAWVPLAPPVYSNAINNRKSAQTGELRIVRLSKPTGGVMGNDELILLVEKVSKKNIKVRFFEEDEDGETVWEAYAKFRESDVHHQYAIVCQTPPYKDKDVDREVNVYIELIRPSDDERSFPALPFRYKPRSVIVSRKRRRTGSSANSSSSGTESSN

Row | Sequence | binding signal [1] [z-score] | binding signal (GST-Co-NF-kB) [z-score] | binding signal (GST-Aq-NF-kB) [z-score] | binding signal (GST-Dm-Relish) [z-score]
1 | CCGATTAACATCAGGGGATTACCTGATGTTAATCGGGTCTTGATTCGCTTGACGCTGCTG | 10.5 | 3.93 | 9.77 | –
2 | CCGATTAACATCAGGAAAACCCCTGATGTTAATCGGGTCTTGATTCGCTTGACGCTGCTG | 8.89 | 2.41 | 9.24 | –
3 | CCGATTAACATCACGAATTCCCCTGATGTTAATCGGGTCTTGATTCGCTTGACGCTGCTG | 10.1 | 7.11 | 6.73 | 6.96
4 | CCGATTAACATCACCCGCGCTCATGATGTTAATCGGGTCTTGATTCGCTTGACGCTGCTG | 0.692 | 0.663 | 0.588 | 1.06
5 | CCGATTAACATCAATCTTCCCCCTGATGTTAATCGGGTCTTGATTCGCTTGACGCTGCTG | 6.99 | 9.37 | 6.23 | –
6 | CCGATTAACATCAGGAATCCCACTGATGTTAATCGGGTCTTGATTCGCTTGACGCTGCTG | 1.37 | 0.956 | 1.75 | 8.1
7 | CCGATTAACATCAAACAGCCCCCTGATGTTAATCGGGTCTTGATTCGCTTGACGCTGCTG | 4.11 | 1.91 | 5.29 | –
8 | CCGATTAACATCAGGGAAACTAATGATGTTAATCGGGTCTTGATTCGCTTGACGCTGCTG | 3.94 | 3.69 | 3.45 | –
9 | CCGATTAACATCAGGCAATCCCATGATGTTAATCGGGTCTTGATTCGCTTGACGCTGCTG | -0.214 | 0.183 | 1.38 | –
10 | CCGATTAACATCACGGAATGCCCTGATGTTAATCGGGTCTTGATTCGCTTGACGCTGCTG | 0.18 | 0.241 | 2.6 | –
11 | CCGATTAACATCAAGATTAGGGATGATGTTAATCGGGTCTTGATTCGCTTGACGCTGCTG | 0.684 | 0.326 | 0.848 | -0.672
12 | CCGATTAACATCACTGGGAGGGCTGATGTTAATCGGGTCTTGATTCGCTTGACGCTGCTG | 0.798 | 1.47 | 0.363 | 0.933
13 | CCGATTAACATCAAATATTCCCCTGATGTTAATCGGGTCTTGATTCGCTTGACGCTGCTG | 10.7 | 10.1 | 8.12 | –
14 | CCGATTAACATCAGGGGAAACACTGATGTTAATCGGGTCTTGATTCGCTTGACGCTGCTG | 8.15 | 7.63 | 7 | 9.02
